# Several values for one entry are separate records, joined by “and”; a condition that tells them apart may be missing. Equal values may be shown once. The campaign covered roughly 420,000 compounds. About 64,000 (15%) were called active. Inconclusive means that the source gave no clear call. Such entries were picked first, then a sample of the others. The call rests on the fitted dose curve; in most records, active means well fitted inhibition curve with a large enough effect; inconclusive means small, poorly fitted or top-dose-only effect; inactive means flat fitted curve, though single readings scatter. Potencies of inconclusive entries are doubtful fits and often do not repeat.
# Experiment: qHTS for Inhibitors of human tyrosyl-DNA phosphodiesterase 1 (TDP1): qHTS in cells in absence of CPT; further: nearly all actives have a fitted effect of over 55% in size
# Settings: DT40 Tdp1-/- hTDP1 cells, no CPT, ATP luminescence, 48 h; activity change, negative = growth inhibition: at 46.2 µM (top of the series) unless noted
# Summary of the method: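 A cellular qHTS used chicken DT40 cells lacking endogenous Tdp1 but carrying stably transfected human TDP1. Compounds were applied without camptothecin, and cell growth kinetics were judged by ATP-dependent luminescence after ≥48 hr.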
# On the % scale 0 is the no-effect control and ±100 the full control effect; potency means the concentration at half of the fitted maximal effect; tags describe the fitted curve by direction and shape.
Compound,Potency,"activity change, negative = growth inhibition"
COC(=O)C1=CO[C@H](C)[C@H]2CN3CC[C@@]4(C(=O)Nc5ccccc54)[C@@H]3C[C@H]12,"inconclusive: 20.6 µM [inhibitor, single point]",
O=C(Cc1ccccc1)N1CCN(C/C=C/c2ccccc2)CC1,"inconclusive: 20.6 µM [inhibitor, single point]",
O=C(Nc1ccc(Cl)cc1)Nc1ccc(Cl)c(Cl)c1,active: 5.01 µM and active: 841 nM and active: 2.91 µM,
C=CCn1c(O)c(C(C)=Nc2ccc(C(=O)OCC)cc2)c(=O)[nH]c1=O,"inconclusive: 0.58 µM [inhibitor, full curve, poor fit]",
CC(=O)Nc1ccc(C(=O)OCC(=O)Nc2ccc(Cl)cc2C(=O)c2ccccc2)cc1,"inconclusive: 25.9 µM [inhibitor, single point]",
COc1cc(OC)cc(C(=O)Nc2ccc(Br)cc2C(=O)c2ccccc2)c1,,inactive: -25.3%
Cc1cccc(OCCNc2ncccc2[N+](=O)[O-])c1,"inconclusive: 18.4 µM [inhibitor, single point]",
Cc1ccc([C@@H]2CC(=O)[C@@H]3CN(S(=O)(=O)c4ccccc4C)[C@H](c4ccc(Cl)cc4)C[C@@H]3N2S(=O)(=O)c2ccc(C)cc2)cc1,active: 25.9 µM,
Cc1[nH]ccc2c1[nH]c1cc(=O)ccc12,active: 14.6 µM and active: 13 µM,
COc1ccc(-c2cc(NC=O)c3ncc(-c4cc(OC)c(OC)c(OC)c4)n3c2)c(OC)c1,active: 0.82 µM,
CC(=O)Oc1ccccc1C(=O)Nc1ncc([N+](=O)[O-])s1,"inconclusive: 9.44 µM [inhibitor, partial curve, poor fit]",
Cc1ccccc1N1CCN(Cc2ccc3c(c2)OCO3)CC1,,inconclusive: -31.5% [inhibitor]
O=C1c2ccccc2C(=O)N1Cc1nc2ccccc2c(=O)n1-c1ccccn1,,inactive: -8.67%
CCC(=NCCc1ccccc1)c1c(O)n(C)c(=O)n(C)c1=O,active: 8.2 µM,
CN(C)c1ccc(NC(=O)CN2C(=O)CN=C(c3ccccc3)c3cc(Cl)ccc32)cc1,"inconclusive: 29.1 µM [inhibitor, single point]",
CCC1(c2ccc(C)cc2)C(=O)NC(=S)NC1=O,,inactive: 2.01%
CCCCn1c(=O)c(C(=O)Nc2ccccc2S(N)(=O)=O)c(O)c2ccccc21,"inconclusive: 29.1 µM [inhibitor, single point]",
CCCCc1ccc2[nH]cc(CCN)c2c1,active: 20.6 µM,
O=C(c1ccc(CNS(=O)(=O)c2ccccc2)cc1)N1CCC2(CC1)OCCO2,,inactive: -18.4%
C[C@]12CCC3C(C(=O)C[C@H]4C[C@@H](O)CC[C@]34C)C1CCC2=O (stereo not given in full),,inactive: -15.9%
COc1cc(/C=C2\C(=O)NC(=O)N(c3ccccc3)C2=O)c([N+](=O)[O-])cc1OC,,inactive: -7.39%
Cc1cccc(C(=O)Nc2ccc(C(=O)OCc3cc(=O)n4nc(C5CC5)sc4n3)cc2)c1,"inconclusive: 14.6 µM [inhibitor, single point]",
O=C(c1ccc(Cl)cc1)C1CCCN(C2CCSCC2)C1 (stereo not given),"inconclusive: 29.1 µM [inhibitor, single point]",

Compound,Potency,"activity change, negative = growth inhibition"
CCOC(=O)c1ccc(N2CCN(c3ccccc3F)CC2)c(NC(=O)Nc2ccc(Cl)c(Cl)c2)c1,active: 1.3 µM,
CC(C)(C)c1cc([N+](=O)[O-])cc(C(C)(C)C)c1O,active: 5.17 µM,
CCn1cc(CN(C)S(=O)(=O)c2ccc3ccccc3c2)c(C)n1,active: 5.8 µM,
Cc1ccccc1-c1nc(CS(=O)CC(=O)N2CCN(c3cc(Cl)ccc3C)CC2)c(C)o1 (stereo not given),active: 13 µM,
CCC(C)(C)n1nnnc1C(c1cccc(C#N)c1)N1CCN(c2cc(C)ccc2C)CC1 (stereo not given),active: 23.1 µM,
Cc1ccccc1-n1c(O)c(/C=N/c2nccs2)c(=O)[nH]c1=O,"inactive and inconclusive: 820 nM [inhibitor, partial curve, poor fit]",
CCOC(=O)c1ccc(NC(=O)N2C[C@@H]3C[C@@H](C2)c2cccc(=O)n2C3)cc1,,inactive: 20%
CCCCC(=O)N/N=C/c1c(O)n(CCCC)c(=S)[nH]c1=O,"inconclusive: 29.1 µM [inhibitor, single point]",
CSC1=NP(=S)(SC)N(C)c2nc3n(c21)CCC3 (stereo not given),"inconclusive: 25.9 µM [inhibitor, partial curve]",
CC1C(OC(=O)CCC(=O)NC(C)(C)CO)O[C@H]2OC3(C)CC[C@H]4[C@H](C)CCC1C24OO3 (stereo not given in full),active: 0.0366 µM,
CNC(=O)Oc1cccc2c1OC(C)(C)O2,"inactive and inconclusive: 29.1 µM [inhibitor, single point]",
Cc1ccccc1NC(=O)COC(=O)c1cc(C)n(C2CC2)c1C,"inconclusive: 29.1 µM [inhibitor, single point]",
CCCOc1ccccc1C1SCC(=O)Nc2c1c(=O)[nH]n2C(C)CCC (stereo not given),,inactive: -27.2%
NC(Cc1ccccc1Cl)c1nn[nH]n1 (stereo not given),,inactive: -10.1%
COc1ccc2c(c1OC)C(=O)OC2c1c(O)n(Cc2ccc(F)cc2)c(=O)[nH]c1=O (stereo not given),,inactive: 3.21%
Cn1ncc2c(NCc3ccc(Cl)cc3)ncnc21,"inconclusive: 25.9 µM [inhibitor, single point]",
CC=C(CC)C1(CC)C(=O)NC(=S)NC1=O,,inactive: 3.83%
CCOc1ccc2c(c1)c(C(C)=O)c(C)n2Cc1ccco1,"inconclusive: 25.9 µM [inhibitor, single point]",
COC(=O)c1ccccc1-n1c(C)nc2ccccc2c1=O,"inconclusive: 1.64 µM [inhibitor, partial curve, poor fit]",
CCCCCCCSc1cc(OC)c(CCN(C)C)cc1OC,"inconclusive: 29.1 µM [inhibitor, single point]",
CN1CC[C@@]2(C)c3cc(O)ccc3N(C)[C@@H]12,active: 13.3 µM and active: 7.31 µM,
COC(=O)C1=C(c2c(C)noc2C)C[C@@H]2CC[C@H]1N2C(=O)NCc1ccc(C(F)(F)F)cc1,"inconclusive: 25.9 µM [inhibitor, single point]",

# Source: PubChem BioAssay AID686978 (National Center for Advancing Translational Sciences (NCATS), 2013)
